Consider 59 compounds from PubChem BioAssay (NCI).

Several values for one entry are separate records, joined by “and”; a condition that tells them apart may be missing. Equal values may be shown once.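 Test compounds were applied to cells in 96-well plates for 48 hours at 5 doses. GI50 = concentration required for 50% inhibition of growth. At the TGI there is no net growth.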

This experiment has as its system NCI-H322M lung. Nature of the experiment: NCI tumour cell line growth inhibition, 48 h.
For the compound `CCNC(=O)O/N=C1\CCC2[C@@H]3CC=C4C[C@@H](OC(=O)NCC)CC[C@]4(C)C3CC[C@]12C` (stereo partly drawn), the TGI amounted to 10.8 µM.
Still for that read-out and setting: to `CCCC(O)c1ccc2[nH]c3c(C)cc([N+](=O)[O-])c(C)c3c2c1` (stereo not drawn) belongs more than 100 µM.
`O=C1CC2(CCN(Cc3ccccc3)CC2)C(=O)N1N1CCCCC1` yielded a TGI of more than 100 µM.
`Cc1ccc2c(c1)CC1(Cc3cc(C)ccc3C1=O)C2=O` gave a TGI of more than 100 µM.
Still for that read-out and setting: as for `CC(=O)OC1CCC2(C)C(CCC3C2CCC2(C)C(c4ccc(=O)oc4)C(OC(C)=O)CC32O)C1` (stereo not drawn), the figure is 0.0284 µM; as for `O=[N+]([O-])C(/C=C(\Cl)[N+](=O)[O-])=C(N1CCOCC1)N1CCOCC1`, more than 100 µM; as for `O=C1OC(c2ccccc2)=N/C1=C\c1ccccc1`, more than 100 µM.
`N#C/C(=C/c1ccc([N+](=O)[O-])o1)c1ccccc1` gave a TGI of more than 100 µM.
The same measure, in the same setting: as for `CC(=O)OC1COC(N2C(=O)C(=O)c3ccccc32)C(OC(C)=O)C1OC(C)=O` (stereo not drawn), the figure is more than 100 µM.
The same measure, in the same setting: to `C=CCN(C(C)=O)c1cc(OCc2ccccc2)c2c(c1)c(C)cn2S(=O)(=O)c1ccccc1` belongs more than 100 µM; to `C=CCCCCCCCCCOC1C=CC(O)C(CO)O1` (stereo not drawn), more than 100 µM; to `O=C1C=C2SC3C[C@@]24CC1(O)[N+]1=c2c4c(c(O)c4c2=C(C=N4)CC1)N3`, 2.86 µM.
Still for that read-out and setting: to `Cc1ccc([N+](=O)[O-])cc1S(=O)(=O)Nc1ccc(C2=NN(S(=O)(=O)c3cc([N+](=O)[O-])ccc3C)C(c3ccccc3O)C2)cc1` (stereo not drawn) belongs more than 100 µM; to `O=C(CC1(O)C(=O)Nc2ccccc21)c1cccc(O)c1` (stereo not drawn), more than 100 µM.
As for `C=C1C(C)C2C(Cc3ccccc3)NC(=O)C23C(OC(C)=O)C=CC(C)(O)C(=O)C(C)C/C=C/C3C1O` (stereo not drawn), the GI50 is more than 301 µM and the TGI was more than 500 µM.
For the compound `NC1=Nc2ncccc2C(=O)NN1`, the TGI was more than 10 µM.
For the compound `COc1ccc(/C=C\c2cc(OC)c(OC)c(OC)c2)cc1NC(=O)/C=C/c1cc(OC)c(OC)c(OC)c1`, the GI50 was 9.55 µM and the TGI is more than 100 µM.
Turning to `CN1CCN(Cc2ccc(NC(=O)c3cncc(C#Cc4c(N)ncc5ccccc45)c3)cc2C(F)(F)F)CC1`, the GI50 was 0.713 µM and the TGI turned out to be 1.43 µM.
`COC(=O)[C@@H]1CN(C(=O)Cc2ccccc2)C(=O)N1` displayed a TGI of more than 100 µM.
With `COc1cc2c3c(c4cc(OC)c(OC)cc4c2cc1OC)CN1CCC[C@H]1C3`, the GI50 was 0.0433 µM and 0.0103 µM; the TGI is 0.439 µM and 0.861 µM.
Consider `COc1cc(/C=N\Nc2ccccc2)ccc1OC(=O)c1ccccc1`, for which the GI50 is 21.2 µM and the TGI was more than 100 µM.
With `ClC/C=C/CSc1ncnc2nc[nH]c12`, the GI50 was more than 100 µM and the TGI is more than 100 µM.
Compound `CCOC(=O)C1=C(C)N(NC(=O)Nc2ccccc2)C2(N)N(NC(=O)Nc3ccccc3)C(C)=C(C(=O)OCC)C12C#N` (stereo not drawn) gave a TGI of 61.8 µM.
The same measure, in the same setting: to `C/C(=C\COP(=O)(O)OP(=O)(O)O)CC/C=C(\C)CNc1c(F)c(F)c(F)c(F)c1F` belongs more than 100 µM; to `COC(OC)c1cccc2c1C(=O)CCC1(CC2)OCCCCO1`, more than 100 µM.
Still for that read-out and setting: to `CSC(SC)=C(C#N)C(=O)Nc1ccc(Cl)cc1` belongs more than 100 µM; to `O=C(O)c1ccccc1Sc1ccc(C=C2NC(=S)N(c3ccccc3)C2=O)s1`, more than 100 µM; to `COc1ccc2c(Cl)cc(NC(=S)Nc3ccccc3)nc2c1`, more than 100 µM.
The same measure, in the same setting: as for `CN(C(=O)C12C3C4C1C1C2C3C41C#N)C(C)(C)C` (stereo not drawn), the figure is more than 100 µM; as for `Cc1n[nH]c(=O)c2c3c([nH]c12)-c1ccccc1C3`, more than 100 µM.
Regarding `O=C(CC(C(=O)c1ccsc1)c1cccs1)c1cccs1` (stereo not drawn), the TGI was more than 100 µM.
Still for that read-out and setting: as for `C#Cc1c(C)c(/C=C/C(C)=C\C(=O)OC)n(C)c1C`, the figure is more than 100 µM; as for `CCOC(=O)CN(CC)C(=O)NC12CC3CC(CC(C3)C1)C2`, more than 605 µM; as for `O=C(C=P(c1ccccc1)(c1ccccc1)c1ccccc1)c1ccccc1-c1ccccc1C(=O)C=P(c1ccccc1)(c1ccccc1)c1ccccc1`, 0.157 µM.
In the case of `Cc1ccc2nc(CN(CCN(Cc3nc4ccc(C)cc4[nH]3)Cc3nc4ccc(C)cc4[nH]3)Cc3nc4ccc(C)cc4[nH]3)[nH]c2c1`, the GI50 was 1.2 µM and the TGI stood at 2.43 µM.
For the compound `CCOC(=O)/C(C(=O)c1ccc[nH]1)=C1/CCCN1C`, the TGI is more than 100 µM.
Turning to `CC(C)(C)n1cc(-c2ccnc(NCCCNS(=O)(=O)c3cccc4ccccc34)c2)c(-c2cccc(O)c2)n1`, the GI50 was 2.66 µM and the TGI was 7.31 µM.
As to `COc1oc(C2C/C(=C/C(C)=C/C(C)=C/C(C)=C/c3ccc([N+](=O)[O-])cc3)CO2)c(C)c(=O)c1C` (stereo not drawn), the TGI was more than 100 µM.
On the same count and under the same terms, to `C[N+]1(CC[N+]2(C)CCCC2c2cccnc2)CCCC1c1cccnc1` (stereo not drawn) belongs 91.1 µM; to `c1ccc(-c2cc(-c3ccccc3)nc(-c3ccncc3)c2)cc1`, more than 100 µM.
For the compound `O=C(NOCCO)c1ccc2cncn2c1Nc1ccc(I)cc1F`, the GI50 is 0.0604 µM and 0.0427 µM; the TGI is more than 100 µM.
Take `CC1(C)OCC(/C=C\C(O)CC2(C)OCCO2)CO1` (stereo not drawn): the TGI was more than 100 µM.
On the same count and under the same terms, as for `COc1ccc2cc(CNCCCCCCNC(=O)Nc3cccc4ccccc34)ccc2c1`, the figure is more than 100 µM.
In the case of `COc1cc2c(cc1O)CCN[C@@]21CS[C@H]2c3c(OC(C)=O)c(C)c4c(c3C(COC1=O)N1C2C2NC(Cc3cc(C)c(OC)c(O)c32)[C@@H]1O)OCO4` (stereo partly drawn), the GI50 was 0.000459 ng/mL and 4.5 ng/mL.
As for `CC[C@@]1(O)C(=O)OCc2c1cc1n(c2=O)Cc2c-1nc1ccc(N)cc1c2CC[Si](C)(C)C`, the TGI came out at 13.2 µM.
As for `N#CCCN(C(=O)Nc1ccc(NC(=O)N(CCC#N)c2ccccc2)cc1)c1ccccc1`, the TGI is more than 100 µM.
Same read-out and setting: to `CCOC(=O)c1c(N2CCN(C)CC2)[nH]c(=O)c(C(c2c(Cl)cccc2Cl)c2c(O)c(C(=O)OCC)c(N3CCN(C)CC3)[nH]c2=O)c1O` belongs 48.4 µM; to `CCN(CC)C(=O)Cc1[nH][nH]c(=O)c1C(=O)N(CC)CC`, more than 100 µM; to `O=[N+]([O-])c1ccc(CSC2=C(c3ccc(Cl)cc3)S/C(=C3\SC(SCc4ccc([N+](=O)[O-])cc4)=C(c4ccc(Cl)cc4)S3)S2)cc1`, more than 100 µM.
`COC(=O)C(=O)C(C(=O)C(=O)Nc1cc(C)ccc1C)c1nc2ccccc2[nH]c1=O` (stereo not drawn) came in with a TGI of more than 100 µM.
With `O=C(NCCN1CCOCC1)c1cc2c(Oc3ccc(NC(=O)C4(C(=O)Nc5ccc(F)cc5)CC4)cc3)ccnc2[nH]1`, the GI50 is 7.59 µM and the TGI was more than 93.9 µM.
In the same order, the values of `O=C1c2ccc3c4c(ccc(c24)C(=O)N1CCCCO)C(=O)N(CCCCO)C3=O` are 2.18 µM and 7.33 µM.
Take `C=CCSC1=N/C(=C\c2ccc(C)cc2)C(=O)N1CC=C`: the TGI was more than 100 µM.
`COc1cc(F)c(F)c(Nc2ccc(I)cc2F)c1NS(=O)(=O)C1(CC(O)CO)CC1` (stereo not drawn): the GI50 is 14.9 µM and the TGI was found to be 57.9 µM.
For `Cc1csc(NCc2ccc(Cl)cc2)n1`, the TGI was more than 100 µM.
Turning to `Cc1ccc(C)c(N2CCN(c3ccncc3N)CC2)c1`, the GI50 is 44.5 µM and the TGI is more than 100 µM.
`Nc1nc(N)c(CCCCc2ccc([N+](=O)[O-])cc2)c(N)n1` registered a TGI of more than 100 µM.
The same measure, in the same setting: as for `CCOC(=O)c1cccc(N=NNc2cccc(C(=O)OCC)c2)c1`, the figure is more than 100 µM.
As for `OC[C@H]1C[C@](O)(c2ccccc2Cl)[C@@H](c2ccccc2Cl)O1`, the GI50 is 32.7 µM and the TGI is more than 100 µM.
